# Measured values taken from the RNAGym collection of RNA variant scans (doi:10.1093/nar/gkz1192).
# Read counts are not given, so values of variants with three or more changes are uncertain.
# B1: CPEB3 Ribozyme (parent)
# chain: UAACAGGGGGCCACAGCAGAAGCGUUCACGUCGCAGCCCCUGUCAGAUUCUGGUGAAUCUGCGAAUUCUGCUGUAUAUCUC
# Variants of: B1
# Assay: self-cleavage, relative activity (ratio to wild type); higher = more cleavage; in vitro, sequencing
# How it was run: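 Relative activity compares each variant's cleaved/total read fraction with that of the unmutated ribozyme. To get these fractions, barcoded CPEB3 ribozyme libraries from rounds of error-prone PCR were transcribed with T7 RNA polymerase for 5 hours at 37°C and then given 15 min of DNase I treatment before EDTA was added. The RNAs were reverse transcribed with template switching and sequenced on Illumina, and DNA sequencing linked barcodes to variants. A minimum of 5 reads applied, and three batches were averaged.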
row,Variant,self-cleavage
1,UAACAGGGGGCCACGGCAGAAGCGUCCACGUCGCAGCCCCUGUCGGAUUCUGGUGAAUCUGCGGACUCUGCUGUAUAUCCC [A15G U26C A45G A64G U66C U80C],0.1
2,UAACAGGGGGCCACGGCAGAAGCGUCCACGUCGCAGCCCCUGUCUGACUCUGGUGGAUCUGCGAAUUCUGCUGUAUAUCUC [A15G U26C A45U U48C A56G],0.06
3,UAACAGGGGGCCACGGCAGAAGCGUCCACGUCGCAGCCCCUGUCUGAUUCUGGUGAAUCUGCGAAUCCUGCUAUAUAUCUC [A15G U26C A45U U67C G73A],0.34
4,UAACAGGGGGCCACGGCAGAAGCGUCCACGUCGCAGCCCCUGUCAGAUUCUGGUGAAUCUGCGGAUACUGCUGUAUAUCUC [A15G U26C A64G U67A],0.09
5,UAACAGGGGGCCACGGCAGAAGCGUCCACGUAGCGGCCCCUGUCAGAUUCUGGUGAUUCCGCGAAUUCUGCUGUAUAUCUC [A15G U26C C32A A35G A57U U60C],0.11
6,UAACAGGGGGCCACGGCAGAAGCGUCCACGUCGAAGCCCCUGUCAGAUUCUGGUGAAUCUGCGAAUUCUGCAGUUUACCUC [A15G U26C C34A U72A A75U U78C],0.14
7,UAACAGGGGGCCACGGCAGAAGCGUCCACGUCGCAGCCCACGUCAGAUUCUGGUGAAUCUGCGAAUUCCGCUGUAUAUCUC [A15G U26C C40A U41C U69C],0.07
8,UAACAGGGGGCCACGGCAGAAGCGUCCACGUCGCAGCCCCUGUCAGAUUCUGGUGAAUCUGGGAAUUCUGCUGUAUAUCAC [A15G U26C C62G U80A],0.19
9,UAACAGGGGGCCACGGCAGAAGCGUCCACGUCGCAGCCCCUGUCAGAUUCUGGUGAAUCUGCGAAUUACGCUGUAUAUCUC [A15G U26C C68A U69C],0.13
10,UAACAGGGGGCCACGGCAGAAGCGUCCACGUCGCAGCCCCUGUCAGAUUCUGGUGAAUCUGCGAAUUCUGUUGUAUAUCUC [A15G U26C C71U],0.23
11,UAACAGGGGGCCACGGCAGAAGCGUCCACAUCGCAGACCCUGUCAGAUUCUGGGGAAUCUGCGAAUUCAGCUGUAUAUCCC [A15G U26C G30A C37A U54G U69A U80C],0.05
12,UAACAGGGGGCCACGGCAGAAGCGUCCACCUCGCAGCCCCUGUCAGAUUCUGGUGAAUCUGCGAAUUCUGCUGUAUAUCAC [A15G U26C G30C U80A],0.04
13,UAACAGGGGGCCACGGCAGAAGCGUCCACGCCGCAGCCCCUGUCAGAUUCUGGUGAAUCUGCGAAUUCUGCUGUAUAUCUC [A15G U26C U31C],0.18
14,UAACAGGGGGCCACGGCAGAAGCGUCCACGCCGCAGCCCCUGUCAGUUUCUGGUGAAUCUGCGAAUUCUGCUGUAUAUCUC [A15G U26C U31C A47U],0.41
15,UAACAGGGGGCCACGGCAGAAGCGUCCACGUCGCAGCCCCCGUCAGAUUCUGGUGAAUCUGCGGAUUCUGCUGUAUAUCUC [A15G U26C U41C A64G],0.33
16,UAACAGGGGGCCACGGCAGAAGCGUCCACGUCGCAGCCCCCGACAGAUACUGGUGAGUCUGCGAAUUCUGCUGCAUAUCUC [A15G U26C U41C U43A U49A A57G U74C],0.12
17,UAACAGGGGGCCACGGCAGAAGCGUCCACGUCGCAGCCCCCGUCAGACUCUGGCGAAUCUGCGGAUUCUGCUGUAUAACUC [A15G U26C U41C U48C U54C A64G U78A],0.15

row,Variant,self-cleavage
1,UAACAGGGGGCCACGGCAGAAGCGUCCACGUCGCAGCCCCCGUCAGAUACUGGUGAAUCUGCGAAUUCUGCUGUAUAUCUC [A15G U26C U41C U49A],0.15
2,UAACAGGGGGCCACGGCAGAAGCGUCCACGUCGCAGCCCCCGUCAGAUUCUGGUGAAUCCGCGAGUUCUGCUGUAUAUCUC [A15G U26C U41C U60C A65G],0.02
3,UAACAGGGGGCCACGGCAGAAGCGUCCACGUCGCAGCCCCUGCCAGAUUCUGGUGAAUCUGCGAAUUCUGCUGUAUAUCUC [A15G U26C U43C],0.66
4,UAACAGGGGGCCACGGCAGAAGCGUCCACGUCGCAGCCCCUGUCAGAUACUAGUGAAUCUGCGAAUUCUGCUGUAUAUCUC [A15G U26C U49A G52A],0.29
5,UAACAGGGGGCCACGGCAGAAGCGUCCACGUCGCAGCCCCUGUCAGAUCCUGGUGAAUCUGCGAAUUCUGCUGUAUAUCUC [A15G U26C U49C],0.22
6,UAACAGGGGGCCACGGCAGAAGCGUCCACGUCGCAGCCCCUGUCAGAUCCUGGUGAAUCUGCGAAUCCUGCUGUAUAUCUC [A15G U26C U49C U67C],0.23
7,UAACAGGGGGCCACGGCAGAAGCGUCCACGUCGCAGCCCCUGUCAGAUUCAGGUGAAUCUGCGAAUUCUGCUGUAUAUCUC [A15G U26C U51A],0.39
8,UAACAGGGGGCCACGGCAGAAGCGUCCACGUCGCAGCCCCUGUCAGAUUCUGGCGAAUCUGCGAAUUCUGCCGUAUAUCUC [A15G U26C U54C U72C],0.51
9,UAACAGGGGGCCACGGCAGAAGCGUCCACGUCGCAGCCCCUGUCAGAUUCUGGCGAAUCUGCGAAUUCUGCUGUACAUCUC [A15G U26C U54C U76C],0.39
10,UAACAGGGGGCCACGGCAGAAGCGUCCACGUCGCAGCCCCUGUCAGAUUCUGGUGAAUCCGCGAAUUCUGCUGUAUAUCUC [A15G U26C U60C],0.33
11,UAACAGGGGGCCACGGCAGAAGCGUCCACGUCGCAGCCCCUGUCAGAUUCUGGUGAAUCUGCGAACUCUGCUGUACAUCUC [A15G U26C U66C U76C],0.19
12,UAACAGGGGGCCACGGCAGAAGCGUCCACGUCGCAGCCCCUGUCAGAUUCUGGUGAAUCUGCGAACUCUGCUGUAUACCUC [A15G U26C U66C U78C],0.29
13,UAACAGGGGGCCACGGCAGAAGCGUCCACGUCGCAGCCCCUGUCAGAUUCUGGUGAAUCUGCGAAUCCUGCUGUAUAUCUC [A15G U26C U67C],0.23
14,UAACAGGGGGCCACGGCAGAAGCGUCCACGUCGCAGCCCCUGUCAGAUUCUGGUGAAUCUGCGAAUUCUGCAGUAUAUCUC [A15G U26C U72A],0.2
15,UAACAGGGGGCCACGGCAGAAGCGUGCACGUCGCAGCCCCCGUCAGAUUCUGGUGAGUCUGCGAAUUCUGCUGUAUAUCUC [A15G U26G U41C A57G],0.12
16,UAACAGGGGGCCACGGCAGAAGCGUGCACGUCGCAGCCCCUGUCAGAUUCCGGUGAGUCUGCGAAUCCUGCUGUAUACCUC [A15G U26G U51C A57G U67C U78C],0.04
17,UAACAGGGGGCCACGGCAGAAGCGUGCACGUCGCAGCCCCUGUCAGAUUCUGGUGAAUCUGCGAAUUCUGCUGCAUAUCAC [A15G U26G U74C U80A],0.46
